Here are results for 83 compounds from ChEMBL document CHEMBL4888484, “Replenishing the malaria drug discovery pipeline: Screening and hit evaluation of the MMV Hit Generation Library 1 (HGL1) against asexual blood stage Plasmodium falciparum ,using a nano luciferase reporter read-out” (2022).

Out of some 150,000 compounds screened, about 540 (0.36%) showed an effect of 50% or more. The list shows a part of the results.

This assay deals with Plasmodium falciparum. The assay can be described thus: Primary screen in NF54 nanoGlo assay, in single point, at 2uM, 72h; a lower Z score goes with more inhibition. It counts as functional, Erythrocyte. As to conditions: timepoint 72 hour.
Regarding `COCCNC(=O)CN1CN(c2ccccc2)C2(CCN(C(=O)C3CCCCC3)CC2)C1=O`, the “% Inhibition” value is given as -19% and the Z score was 2.36.
Taken in the same sequence, the figures for `NC(=O)C1(NC(=O)c2ccc3nc(-c4ccccc4)cn3c2)CCCC1` were 0% and -0.09.
For `CNC(=NCCOC1CCCCC1C)NC` (stereo unspecified), the “% Inhibition” value is recorded as -4% and the Z score came to 0.79.
Taken in the same sequence, the figures for `CCc1cccc2c(=O)cc(C(C)C)n(Cc3nnc4n3CCOC4)c12` were 2% and -0.23.
In the case of `O=S(=O)(Cc1cccc(F)c1F)N1CCC(c2nnc3n2CCNC3)CC1`, the “% Inhibition” value is listed as -15% and the Z score is given as 1.56.
With `CCCn1nnc2cc(S(=O)(=O)N3CCC(C(=O)Nc4cccc(Cl)c4C)CC3)ccc21`, the “% Inhibition” value is on record as -1% and the Z score was 0.1.
The matching figures for `Cc1noc(C)c1CN(C)C(=O)c1cc(=O)[nH]c2ccc(F)cc12`: -7% and 1.3.
As to `Cc1ncc(C(=O)N(CCO)Cc2nccn2C)c(C)n1`, the “% Inhibition” value turned out to be 1% and the Z score was -0.09.
Take `CCN1C(=O)c2cc(S(=O)(=O)Nc3ccc(F)c(C)c3)ccc2Oc2cccnc21`: the “% Inhibition” value is listed as -10% and the Z score is 1.79.
The matching figures for `Cc1cc(-c2nc([C@H]3CCOC3)no2)cc(C)n1`: -10% and 0.9.
Take `Cc1cc(F)ccc1NC(=O)c1nn(-c2ccc(F)cc2)c2ccccc2c1=O`: the “% Inhibition” value stood at 1% and the Z score is reported as -0.09.
For the compound `CC(COc1ccc(F)cc1)NC1CCCc2c1cnn2C` (stereo unspecified), the “% Inhibition” value is listed as -12% and the Z score is 1.07.
For `COc1ccc(COC(=O)c2cnn(C(C)(C)C)c2)cn1`, the “% Inhibition” value is -7% and the Z score stood at 1.02.
The matching figures for `Cc1ccc(OCc2cc(C(=O)Nc3ccccc3)oc2C)cc1`: -8% and 0.97.
For `O=C1N[C@H]2CN(C(=O)C3(Cc4cccc(F)c4)CCCCC3)CC[C@@H]2CO1`, the “% Inhibition” value was -1% and the Z score turned out to be 0.07.
As for `CCCc1[nH]nc(-c2cccc(F)c2)c1NC(=O)[C@H](CC)c1ccccc1`, the “% Inhibition” value is -13% and the Z score was 1.92.
Regarding `CCOC(=O)c1cnc2cc(C(F)(F)F)ccc2c1N1CCN(c2ccccc2F)CC1`, the “% Inhibition” value was -1% and the Z score was 0.09.
Taken in the same sequence, the figures for `Cc1ccc(C(=O)N2[C@H](C(=O)NCc3ccco3)COC23CCN(C(=O)c2ccc4c(c2)OCO4)CC3)cc1` were -6% and 0.65.
The matching figures for `COc1ccc(NC(=O)NC[C@H](C)Oc2ccccc2F)nn1`: 7% and -0.99.
The matching figures for `O=C(c1ccco1)N(C[C@H]1CN(Cc2ccc(F)cc2)CCO1)C1CCCC1`: -4% and 0.41.
Take `NCCn1cc(C(=O)N[C@H]2CCc3c2ccc(Cl)c3Cl)nn1`: the “% Inhibition” value is recorded as -9% and the Z score was determined as 1.78.
For the compound `O=C([C@@H]1CCC(=O)N1S(=O)(=O)c1ccccc1)N1CCN(c2ccccc2F)CC1`, the “% Inhibition” value is listed as -19% and the Z score is listed as 2.54.
On to `C[C@@H](C(=O)N1Cc2cnc(-c3ccccc3)nc2C1)n1cnnn1`, for which the “% Inhibition” value is on record as 5% and the Z score is reported as -0.63.
Taken in the same sequence, the figures for `COc1ccc(Nc2nc(CN3C(=O)CCC3=O)cs2)cc1F` were -4% and 0.69.
The matching figures for `O=C(NC(c1ccccc1)c1ccccc1)c1cc(-c2ccccc2Cl)nn1-c1cccc(Cl)c1`: 0% and -0.05.
The matching figures for `COCc1cc(N2CC[C@@]3(CCCN(Cc4ccccc4F)C3=O)C2)ncn1`: 0% and 0.
With `O=C(Nc1ccc(C(F)(F)F)cc1)N1CCN(c2nc(-c3ccccc3)nc3cc(Cl)ccc23)CC1`, the “% Inhibition” value is -14% and the Z score came to 1.32.
Turning to `Cc1nn(C)c(C)c1-c1ccnc(N2C[C@H]3CC[C@H]2C3)n1`, the “% Inhibition” value is given as -9% and the Z score is on record as 1.07.
Taken in the same sequence, the figures for `CCc1nn(C)c(NC(=O)c2cc(C(F)F)[nH]n2)c1CC` were -6% and 0.99.
Consider `Cc1nn(Cn2nc(-c3ccc(F)cc3)c(Br)c2-c2ccc(F)cc2)c(C)c1Cl`, for which the “% Inhibition” value amounted to 41% and the Z score is listed as -4.59.
Take `O=C1CC[C@H](C(=O)N2CCCCCCC2)CN1CCN1CCOCC1`: the “% Inhibition” value was found to be 7% and the Z score is recorded as -0.89.
Taken in the same sequence, the figures for `Cc1nc2c(C#N)cnn2c(O)c1CC(=O)N[C@H]1CCCc2ccccc21` were -6% and 0.74.
Taken in the same sequence, the figures for `CCOc1cc2c(cc1CN1CCN(C)[C@]3(CCC(=O)N(C)CC3)C1)CCC2` were -10% and 1.92.
The matching figures for `C[C@]1(C(=O)NCC2CCC2)CC1(F)F`: 7% and -0.82.
As to `O=C(Nc1ccc2[nH]c(=O)[nH]c2c1)c1ccc(S(=O)(=O)N2CCCC2)cc1`, the “% Inhibition” value stood at 33% and the Z score was -3.73.
`CC1CN(CC(F)(F)c2ccc(F)cc2)CC1N1CCOCC1` (stereo unspecified): the “% Inhibition” value is recorded as -15% and the Z score was determined as 3.06.
In the case of `O=C(Nc1cccc(F)c1)N1CCC[C@H](CN2CCCC2)CC1`, the “% Inhibition” value is 0% and the Z score was 0.
The matching figures for `CN(C)c1nccnc1O[C@H]1CCN(S(=O)(=O)Cc2ccccc2)C1`: -12% and 2.02.
Take `CCS(=O)(=O)N1C[C@@H]2CN(Cc3cccc(OC)n3)C[C@]2(c2nc(C)no2)C1`: the “% Inhibition” value is given as -13% and the Z score was found to be 1.69.
Consider `COc1cc(CO[C@H]2CCCN(C(=O)c3ccc(Cl)cc3Cl)C2)cc(OC)c1`, for which the “% Inhibition” value was 2% and the Z score is on record as -0.22.
Taken in the same sequence, the figures for `CC1CN(C(=O)c2ccsc2)C(C)CO1` (stereo unspecified) were -6% and 0.93.
Taken in the same sequence, the figures for `O=c1[nH]c2cccc(Cl)c2c(=O)n1C1CC1` were 8% and -0.92.
With `CC(C)C[C@@H](NC(=O)Nc1cccc(Cl)c1)C(=O)O`, the “% Inhibition” value was -11% and the Z score is reported as 1.66.
Regarding `CC(C)CCNC(=O)N1C[C@@H]2CN(C(=O)c3ccncc3)C[C@]2(C(=O)N(C)C)C1`, the “% Inhibition” value is listed as -4% and the Z score is on record as 0.47.
The matching figures for `CCOC(=O)c1cccc(NC(=O)c2ccc(-n3cnc(NC(=O)C(C)C)c3)cc2)c1`: -8% and 0.92.
Turning to `O=C(NCc1cccnc1)c1ccc2c(c1)N(Cc1ccc(F)cc1)C(=O)CO2`, the “% Inhibition” value was -10% and the Z score amounted to 1.39.
The matching figures for `Cn1cc([C@@H]2CN(C(=O)COCc3ccnn3C)CCO2)cn1`: -10% and 1.08.
Taken in the same sequence, the figures for `CCc1nncn1CCN[C@H]1CCc2cc(Cl)ccc21` were -4% and 0.51.
Taken in the same sequence, the figures for `C1CCc2c(CNC3[C@@H]4CCO[C@@H]4C34CCC4)noc2C1` (stereo partly specified) were -12% and 2.42.
As for `O=C(NCc1ccncc1)[C@@H]1CNCCN1C(=O)C1CCCCCC1`, the “% Inhibition” value was -8% and the Z score came out at 1.59.
The matching figures for `COc1cccc([C@@]2(CC(=O)N3CCN(c4ccccn4)CC3)CC(=O)N(CCN(C)C)C2=O)c1`: -2% and 0.33.
Taken in the same sequence, the figures for `COCCN(CC1CCN(Cc2ccccc2F)CC1)C[C@@H]1CC=CCC1` were -2% and 0.25.
The matching figures for `Cc1cccc(NS(=O)(=O)c2cccc(C(=O)N3CCc4sccc4C3)c2)c1`: 3% and -0.39.
For the compound `Cc1ccnc(-n2ccnc2-c2cccnc2)c1`, the “% Inhibition” value is recorded as -8% and the Z score is listed as 1.33.
In the case of `CC(C)(C)NC(=O)NCCCc1cnc2ncnn2c1`, the “% Inhibition” value is given as -6% and the Z score is reported as 1.18.
In the case of `C=CCOC[C@@H](O)CN(CCC)Cc1c(-c2ccccc2)noc1N1CCOCC1`, the “% Inhibition” value is -1% and the Z score is reported as 0.17.
Taken in the same sequence, the figures for `O=C(Cc1ccccc1Cl)N1CCc2cc(-c3ccncc3)ccc21` were 4% and -0.69.
Taken in the same sequence, the figures for `COc1cccc([C@@H](O)C(=O)N(C)Cc2cn(C)nc2C(C)C)c1` were -4% and 0.58.
`CC(C)Oc1ncccc1OCc1nnc2n1CCCCC2`: the “% Inhibition” value is -16% and the Z score is on record as 2.04.
As to `N[C@@H](c1ccccc1)c1ccc(-c2cccc(S(N)(=O)=O)c2)cc1`, the “% Inhibition” value is recorded as -10% and the Z score came out at 1.65.
For the compound `CC[C@]1(C(N)=O)CCCN(c2nc(C)c(C)cc2C(N)=O)C1`, the “% Inhibition” value is -11% and the Z score is given as 1.32.
Turning to `O=S(=O)(c1ccc(Cl)cc1)n1nc(Nc2ccccc2Cl)cc1Nc1ccccc1Cl`, the “% Inhibition” value is listed as -11% and the Z score is 1.59.
The matching figures for `OC[C@H](Cc1ccccc1)Nc1nc2ccccc2o1`: 0% and 0.05.
As to `CN(C)Cc1cn(C[C@H]2C[C@@H](NC(=O)NC3CCCC3)[C@H](O)[C@@H]2O)nn1`, the “% Inhibition” value was -4% and the Z score came out at 0.68.
Taken in the same sequence, the figures for `CC(NC(CO)Cc1c[nH]c2ccccc12)c1ccsc1` (stereo unspecified) were -4% and 0.54.
Taken in the same sequence, the figures for `O=S(=O)(CCC1CCCO1)N1CCCC1c1ccc[nH]1` (stereo unspecified) were -11% and 1.42.
Taken in the same sequence, the figures for `Cc1cc(C)n2ncc(CN(Cc3nccn3C)C3CC3)c2n1` were -12% and 2.12.
With `Cc1nc(NC(=O)c2cc(N3CCOCC3)ncn2)sc1C(=O)N(C)C`, the “% Inhibition” value was -15% and the Z score was found to be 2.5.
Turning to `CN(C)C[C@H]1C[C@H](CO)CN(C(=O)c2ccc(Cl)cc2F)C1`, the “% Inhibition” value is on record as -8% and the Z score is 1.07.
Taken in the same sequence, the figures for `CC(C)Cc1nnc(NC(=O)N[C@@H](C)c2cnn(C)c2)s1` were -15% and 2.82.
For the compound `COc1cccc(Cn2nnnc2C)n1`, the “% Inhibition” value is 0% and the Z score was 0.05.
Taken in the same sequence, the figures for `CN1CCCN(S(=O)(=O)c2ccc(Cl)cc2)c2ccccc21` were -6% and 0.67.
`O=C1OC2(CCN([C@H]3CCCOC3)CC2)CN1CCOc1ccccc1`: the “% Inhibition” value is reported as -1% and the Z score is reported as 0.09.
Taken in the same sequence, the figures for `Cc1ccccc1OCCNC(=O)N1CCC2(CCOCC2)C1` were 30% and -3.36.
`COc1ccc(-c2cnc(C)o2)cc1S(=O)(=O)Nc1ccc(C(C)C)cc1`: the “% Inhibition” value is -8% and the Z score worked out at 1.41.
Turning to `CC(=O)Nc1nc(C(=O)NC2CCCCC2C)cs1` (stereo unspecified), the “% Inhibition” value amounted to 1% and the Z score was -0.17.
The matching figures for `Cn1cccc1CNC1CCCCCC1`: 8% and -0.9.
The matching figures for `Cc1ccc(CNC(=O)[C@]2(C)CCC(=O)N2CCCc2ccccc2)cc1`: -16% and 1.5.
Taken in the same sequence, the figures for `CC1(C)CN(C(=O)c2csc(-c3cccs3)n2)CCO1` were -2% and 0.34.
For the compound `COc1ccc(-n2ncc3c2NC(=O)C[C@]32C(=O)Nc3ccccc32)cc1`, the “% Inhibition” value is listed as 0% and the Z score is recorded as -0.07.
For `O[C@H]1CCCN(CCCn2ccnc2-c2ccc3c(c2)CCO3)C1`, the “% Inhibition” value is given as -8% and the Z score was found to be 1.
Regarding `CC(C)c1nc([C@@H]2CCCCCN2Cc2nnn(C(C)(C)C)n2)no1`, the “% Inhibition” value is recorded as -3% and the Z score amounted to 0.63.
Regarding `CC1(C)CN(c2ccnc(C#N)n2)Cc2cn[nH]c21`, the “% Inhibition” value was -6% and the Z score was 0.94.
